Some entries share one result that the patent states for a list of compounds.
Tested on: T1, PDE4
T1 construct: PDE4 activity was determined in U937 human monocytic supernatants cells lysate
Experiment: In vitro determination of PDE4 inhibitory activity in the cell free assay (cAMP disappearance, U937 cell lysate supernatant)
Format: biochemical
Conditions: U937 human monocytic cell lysate supernatant, compounds of the invention, read-out: PDE4 inhibition (IC50, 50% inhibition of cAMP disappearance)

**Q.** Which IC50 does the source give for `CS(=O)(=O)c1ccc(S(=O)(=O)N2CCS[C@H]2C(=O)O[C@@H](Cc2c(Cl)c[n+]([O-])cc2Cl)c2ccc(OC(F)F)c(OCC3CC3)c2)cc1` [Compound 109, 3,5-dichloro-4-((S)-2-(3-(cyclopropylmethoxy)-4-(difluoromethoxy)phenyl)-2-((S)-3-(4-(methylsulfonyl)phenylsulfonyl)thiazolidine-2-carbonyloxy)ethyl)pyridine 1-oxide] here?
**A.** < 0.1 nM

**Q.** Which IC50 does the source give for `COc1ccc(S(=O)(=O)N2CCS[C@H]2C(=O)O[C@@H](Cc2c(Cl)c[n+]([O-])cc2Cl)c2ccc(OC(F)F)c(OCC3CC3)c2)cc1` [Compound 110, 3,5-dichloro-4-((S)-2-(3-(cyclopropylmethoxy)-4-(difluoromethoxy)phenyl)-2-((S)-3-(4-methoxyphenylsulfonyl)thiazolidine-2-carbonyloxy)ethyl)pyridine 1-oxide] here?
**A.** < 0.1 nM

**Q.** Which IC50 does the source give for `O=C(O[C@@H](Cc1c(Cl)c[n+]([O-])cc1Cl)c1ccc(OC(F)F)c(OCC2CC2)c1)[C@@H]1CCCCN1S(=O)(=O)c1ccccc1` [Compound 114, 3,5-dichloro-4-((S)-2-(3-(cyclopropylmethoxy)-4-(difluoromethoxy)phenyl)-2-((S)-1-(phenylsulfonyl)piperidine-2-carbonyloxy)ethyl)pyridine 1-oxide] here?
**A.** < 0.1 nM

**Q.** For `CNS(=O)(=O)c1cccc(S(=O)(=O)N2CCSC2C(=O)O[C@@H](Cc2c(Cl)c[n+]([O-])cc2Cl)c2ccc(OC(F)F)c(OCC3CC3)c2)c1` (stereo partly drawn) [Compound 118, 3,5-dichloro-4-((2S)-2-(3-(cyclopropylmethoxy)-4-(difluoromethoxy)phenyl)-2-(3-(3-(N-methylsulfamoyl)phenylsulfonyl)thiazolidine-2-carbonyloxy)ethyl)pyridine 1-oxide], which IC50 is on record?
**A.** < 0.1 nM

**Q.** For `Cn1cnc(S(=O)(=O)N2CCS[C@H]2C(=O)O[C@@H](Cc2c(Cl)c[n+]([O-])cc2Cl)c2ccc(OC(F)F)c(OCC3CC3)c2)c1` [Compound 119, 3,5-dichloro-4-((S)-2-(3-(cyclopropylmethoxy)-4-(difluoromethoxy)phenyl)-2-((S)-3-(1-methyl-1H-imidazol-4-ylsulfonyl)thiazolidine-2-carbonyloxy)ethyl)pyridine 1-oxide], which IC50 is on record?
**A.** < 0.1 nM

**Q.** For `CN(C)C(=O)c1cccc(S(=O)(=O)N2CCN(CC(=O)O[C@@H](Cc3c(Cl)c[n+]([O-])cc3Cl)c3ccc(OC(F)F)c(OCC4CC4)c3)CC2)c1` [Compound 121, (S)-3,5-dichloro-4-(2-(3-(cyclopropylmethoxy)-4-(difluoromethoxy)phenyl)-2-(2-(4-(3-(dimethylcarbamoyl)phenylsulfonyl)piperazin-1-yl)acetoxy)ethyl)pyridine 1-oxide], which IC50 is on record?
**A.** < 0.1 nM

**Q.** `COc1ccc(S(=O)(=O)N2CCSC2C(=O)O[C@@H](Cc2c(Cl)c[n+]([O-])cc2Cl)c2ccc(OC(F)F)c(OCC3CC3)c2)cc1C(=O)N(C)C` (stereo partly drawn) [Compound 123, 3,5-dichloro-4-((2S)-2-(3-(cyclopropylmethoxy)-4-(difluoromethoxy)phenyl)-2-(3-(3-(dimethylcarbamoyl)-4-methoxyphenylsulfonyl)thiazolidine-2-carbonyloxy)ethyl)pyridine 1-oxide] was tested. Which IC50 did it give?
**A.** < 0.1 nM

**Q.** For `COc1ccc(S(=O)(=O)N2CCC[C@H]2C(=O)O[C@@H](Cc2c(Cl)c[n+]([O-])cc2Cl)c2ccc(OC(F)F)c(OCC3CC3)c2)cc1C(=O)N(C)C` [Compound 124, 3,5-dichloro-4-((S)-2-(3-(cyclopropylmethoxy)-4-(difluoromethoxy)phenyl)-2-((S)-1-(3-(dimethylcarbamoyl)-4-methoxyphenylsulfonyl)pyrrolidine-2-carbonyloxy)ethyl)pyridine 1-oxide], which IC50 is on record?
**A.** < 0.1 nM

**Q.** Which IC50 does the source give for `CN(C)C(=O)c1ccc(S(=O)(=O)N2CCSC2C(=O)O[C@@H](Cc2c(Cl)c[n+]([O-])cc2Cl)c2ccc(OC(F)F)c(OCC3CC3)c2)cc1` (stereo partly drawn) [Compound 125, 3,5-dichloro-4-((2S)-2-(3-(cyclopropylmethoxy)-4-(difluoromethoxy)phenyl)-2-(3-(4-(dimethylcarbamoyl)phenylsulfonyl)thiazolidine-2-carbonyloxy)ethyl)pyridine 1-oxide] here?
**A.** < 0.1 nM

**Q.** Which IC50 does the source give for `CN1CCN(C(=O)c2ccc(S(=O)(=O)N3CCSC3C(=O)O[C@@H](Cc3c(Cl)c[n+]([O-])cc3Cl)c3ccc(OC(F)F)c(OCC4CC4)c3)cc2)CC1` (stereo partly drawn) [Compound 126, 3,5-dichloro-4-((2S)-2-(3-(cyclopropylmethoxy)-4-(difluoromethoxy)phenyl)-2-(3-(4-(4-methylpiperazine-1-carbonyl)phenylsulfonyl)thiazolidine-2-carbonyloxy)ethyl)pyridine 1-oxide] here?
**A.** < 0.1 nM

**Q.** With `COc1ccc(S(=O)(=O)N2CCSC2C(=O)O[C@@H](Cc2c(Cl)c[n+]([O-])cc2Cl)c2ccc(OC(F)F)c(OCC3CC3)c2)cc1C(=O)N1CCN(C)CC1` (stereo partly drawn) [Compound 127, 3,5-dichloro-4-((2S)-2-(3-(cyclopropylmethoxy)-4-(difluoromethoxy)phenyl)-2-(3-(4-methoxy-3-(4-methylpiperazine-1-carbonyl)phenylsulfonyl)thiazolidine-2-carbonyloxy)ethyl)pyridine 1-oxide] as the molecule, how does the IC50 read?
**A.** < 0.1 nM

**Q.** With `COc1ccc(S(=O)(=O)N2CCSC2C(=O)O[C@@H](Cc2c(Cl)c[n+]([O-])cc2Cl)c2ccc(OC(F)F)c(OCC3CC3)c2)cc1C(=O)N1CCOCC1` (stereo partly drawn) [Compound 128, 3,5-dichloro-4-((2S)-2-(3-(cyclopropylmethoxy)-4-(difluoromethoxy)phenyl)-2-(3-(4-methoxy-3-(morpholine-4-carbonyl)phenylsulfonyl)thiazolidine-2-carbonyloxy)ethyl)pyridine 1-oxide] as the molecule, how does the IC50 read?
**A.** < 0.1 nM

**Q.** Which IC50 does the source give for `COc1ccc(S(=O)(=O)N2CCCC[C@H]2C(=O)O[C@@H](Cc2c(Cl)c[n+]([O-])cc2Cl)c2ccc(OC(F)F)c(OCC3CC3)c2)cc1C(=O)N(C)C` [Compound 129, 3,5-dichloro-4-((S)-2-(3-(cyclopropylmethoxy)-4-(difluoromethoxy)phenyl)-2-((S)-1-(3-(dimethylcarbamoyl)-4-methoxyphenylsulfonyl)piperidine-2-carbonyloxy)ethyl)pyridine 1-oxide] here?
**A.** < 0.1 nM

**Q.** Which IC50 does the source give for `CN1CCN(C(=O)c2cccc(S(=O)(=O)N3CCSC3C(=O)O[C@@H](Cc3c(Cl)c[n+]([O-])cc3Cl)c3ccc(OC(F)F)c(OCC4CC4)c3)c2)CC1` (stereo partly drawn) [Compound 130, 3,5-dichloro-4-((2S)-2-(3-(cyclopropylmethoxy)-4-(difluoromethoxy)phenyl)-2-(3-(3-(4-methylpiperazine-1-carbonyl)phenylsulfonyl)thiazolidine-2-carbonyloxy)ethyl)pyridine 1-oxide] here?
**A.** < 0.1 nM

**Q.** How did the IC50 turn out when `COc1ccc(S(=O)(=O)N2CCS[C@H]2C(=O)O[C@@H](Cc2c(Cl)c[n+]([O-])cc2Cl)c2ccc(OC(F)F)c(OCC3CC3)c2)cc1C(=O)N(C)C` [Compound 131, 3,5-dichloro-4-((S)-2-(3-(cyclopropylmethoxy)-4-(difluoromethoxy)phenyl)-2-((S)-3-(3-(dimethylcarbamoyl)-4-methoxyphenylsulfonyl)thiazolidine-2-carbonyloxy)ethyl)pyridine 1-oxide] was run?
**A.** < 0.1 nM

**Q.** `CN1CCN(C(=O)c2cccc(S(=O)(=O)N3CCS[C@H]3C(=O)O[C@@H](Cc3c(Cl)c[n+]([O-])cc3Cl)c3ccc(OC(F)F)c(OCC4CC4)c3)c2)CC1` [Compound 132, 3,5-dichloro-4-((S)-2-(3-(cyclopropylmethoxy)-4-(difluoromethoxy)phenyl)-2-((S)-3-(3-(4-methylpiperazine-1-carbonyl)phenylsulfonyl)thiazolidine-2-carbonyloxy)ethyl)pyridine 1-oxide] was tested. Which IC50 did it give?
**A.** < 0.1 nM

**Q.** `Nc1ccc(S(=O)(=O)N2CCSC2C(=O)O[C@@H](Cc2c(Cl)c[n+]([O-])cc2Cl)c2ccc(OC(F)F)c(OCC3CC3)c2)cc1` (stereo partly drawn) [Compound 135, 4-((2S)-2-(3-(4-aminophenylsulfonyl)thiazolidine-2-carbonyloxy)-2-(3-(cyclopropylmethoxy)-4-(difluoromethoxy)phenyl)ethyl)-3,5-dichloropyridine 1-oxide] was tested. Which IC50 did it give?
**A.** < 0.1 nM

**Q.** For `Nc1ccc(S(=O)(=O)N2CCC[C@H]2C(=O)O[C@@H](Cc2c(Cl)c[n+]([O-])cc2Cl)c2ccc(OC(F)F)c(OCC3CC3)c2)cc1` [Compound 136, 4-((S)-2-((S)-1-(4-aminophenylsulfonyl)pyrrolidine-2-carbonyloxy)-2-(3-(cyclopropylmethoxy)-4-(difluoromethoxy)phenyl)ethyl)-3,5-dichloropyridine 1-oxide], which IC50 is on record?
**A.** 0.1 to 1 nM

**Q.** For `COc1ccc(S(=O)(=O)N2CCSC2C(=O)O[C@@H](Cc2c(Cl)c[n+]([O-])cc2Cl)c2ccc(OC(F)F)c(OCC3CC3)c2)cc1N` (stereo partly drawn) [Compound 137, 4-((2S)-2-(3-(3-amino-4-methoxyphenylsulfonyl)thiazolidine-2-carbonyloxy)-2-(3-(cyclopropylmethoxy)-4-(difluoromethoxy)phenyl)ethyl)-3,5-dichloropyridine 1-oxide], which IC50 is on record?
**A.** < 0.1 nM

**Q.** For `Nc1ccc(S(=O)(=O)N2CSC[C@H]2C(=O)O[C@@H](Cc2c(Cl)c[n+]([O-])cc2Cl)c2ccc(OC(F)F)c(OCC3CC3)c2)cc1` [Compound 138, 4-((S)-2-((R)-3-(4-aminophenylsulfonyl)thiazolidine-4-carbonyloxy)-2-(3-(cyclopropylmethoxy)-4-(difluoromethoxy)phenyl)ethyl)-3,5-dichloropyridine 1-oxide], which IC50 is on record?
**A.** < 0.1 nM

**Q.** How did the IC50 turn out when `Nc1ccc(S(=O)(=O)N2CCOC(C(=O)O[C@@H](Cc3c(Cl)c[n+]([O-])cc3Cl)c3ccc(OC(F)F)c(OCC4CC4)c3)C2)cc1` (stereo partly drawn) [Compound 139, 4-((2S)-2-(4-(4-aminophenylsulfonyl)morpholine-2-carbonyloxy)-2-(3-(cyclopropylmethoxy)-4-(difluoromethoxy)phenyl)ethyl)-3,5-dichloropyridine 1-oxide] was run?
**A.** < 0.1 nM

**Q.** `Nc1ccc(S(=O)(=O)N2CCN(CC(=O)O[C@@H](Cc3c(Cl)c[n+]([O-])cc3Cl)c3ccc(OC(F)F)c(OCC4CC4)c3)CC2)cc1` [Compound 141, (S)-4-(2-(2-(4-(4-aminophenylsulfonyl)piperazin-1-yl)acetoxy)-2-(3-(cyclopropylmethoxy)-4-(difluoromethoxy)phenyl)ethyl)-3,5-dichloropyridine 1-oxide] was tested. Which IC50 did it give?
**A.** < 0.1 nM

From US9931327B2, “Derivatives of 1-phenyl-2-pyridinyl alkyl alcohols as phosphodiesterase inhibitors” (Chiesi Farmaceutici S.p.A., priority 2011, dated 2018)
